Reference: PubChem BioAssay AID686979 (National Center for Advancing Translational Sciences (NCATS), 2013)
Screen size: about 420,000 compounds; about 50,000 (12%) were called active. This list was built around the results that the source calls inconclusive (neither active nor inactive); the mix of calls is not that of the screen. Calls follow the shape of the dose curve; as a rule, active = well fitted inhibition curve with a large enough effect; inconclusive = small, poorly fitted or top-dose-only effect; inactive = flat fitted curve, though single readings scatter. Potencies of inconclusive entries are left out as doubtful fits.
% is scaled to controls: 0 for no effect and ±100 for the full control effect; potency is read from the fitted curve at half-maximal effect; tags tell the direction and shape of the fitted curve.

Assay: qHTS for Inhibitors of human tyrosyl-DNA phosphodiesterase 1 (TDP1): qHTS in cells in presence of CPT; also: nearly all actives have a fitted effect of over 55% in size
Conditions: chicken DT40 Tdp1-/-;hTDP1 cells + 20 nM CPT, ATP luminescence, 48 h; activity change, negative = growth inhibition: at 46.2 µM (top of the series) unless noted
Procedure, shortened: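 Chicken DT40 Tdp1-/- cells stably complemented with human TDP1 were seeded at 400 cells/well in medium containing 20 nM camptothecin, exposed to pin-transferred compounds, and grown at 37 °C for at least 48 hr. Viability was read as ATP luminescence.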
In the case of Cc1c(C(=O)O)[nH]c2c1C(=O)CC(c1ccc(Cl)cc1)C2 (centres undefined), the Potency is reported as “inactive”.
For C=CCc1cccc(/C=N/NC(=O)c2ccccc2Br)c1O, the Potency was inconclusive [inhibitor, single point].
With COc1ccc(-c2n[nH]c(C)c2-c2ccccc2OC)c(O)c1 the Potency was inconclusive [inhibitor, single point].
For Cc1c(C(=O)NCCSCc2c(Cl)cccc2Cl)cccc1[N+](=O)[O-], the Potency was inconclusive [inhibitor, single point].
In the case of COc1ccc(-c2cc(C(F)(F)F)nc(SCC(=O)NCCc3ccccc3)n2)cc1OC, the Potency is reported as inconclusive [inhibitor, single point].
With CN1CCC(N(C)C(=O)c2cccc(S(=O)(=O)N3CCOCC3)c2)CC1 the Potency was “inactive”.
In the case of O=CC1=C(N2CCOCC2)/C(=C/c2ccc(Cl)cc2)CC1, the Potency is reported as inconclusive [inhibitor, single point].
With COc1cccc(C(=O)Nc2c3c(nn2-c2cccc(C)c2C)CS(=O)(=O)C3)c1OC the Potency was active: 35.5 µM.
For COc1ccc(-c2nc3ncccc3o2)cc1NC(=O)c1ccco1, the Potency was inconclusive [inhibitor, single point].
For Cc1ccc(NC(=O)c2cc(S(=O)(=O)N3CCc4ccccc43)ccc2F)cc1Cl, the Potency was active: 4.11 µM.
In the case of NC(=N\N=CCc1ccccc1)/C(N)=N/N=CCc1ccccc1, the Potency is reported as inconclusive [inhibitor, single point].
With COc1ccccc1N1CCN(C(=O)N2CCOCC2)CC1 the Potency was “inactive”.
With O=C(Nc1nc2ccc(Oc3ccccc3)cc2s1)c1cc([N+](=O)[O-])ccc1N1CCOCC1 the Potency was inconclusive [inhibitor, single point].
In the case of CCCCC(CC)C(=O)Nc1ccc(C)c(O)c1 (centres undefined), the Potency is reported as inconclusive [inhibitor, single point].
With O=C(/C=C/c1ccc2c(c1)OCO2)c1ccccn1 the Potency was active: 23.1 µM.
In the case of CCCCN(C(=O)c1cc(Cl)nc2ccccc12)c1c(N)n(Cc2ccccc2)c(=O)[nH]c1=O, the Potency is reported as “inactive”.
With CN(CCc1ccccc1)C(=O)c1cccc(NC(=O)Cc2cccc(NC(=O)C3CCN(C(=O)C4CCCC4)CC3)c2)c1 the Potency was inconclusive [inhibitor, partial curve].
For Cc1ccc(Cl)cc1N1CCN(S(=O)(=O)c2cc3c(cc2C)NC(=O)CO3)CC1, the Potency was inconclusive [inhibitor, single point].
For COc1cc2[nH]c(C(=O)Nc3ccc4c(c3)OCCO4)cc2c(OC)c1OC, the Potency was active: 16.4 µM.
With CC[n+]1ccc2cc(OC)c(OC)cc2c1Cc1ccc(OC)c(OC)c1 the Potency was inconclusive [inhibitor, partial curve].
In the case of CCOC(=O)c1sc(S(C)(=O)=O)c2c1CCc1conc1-2, the Potency is reported as “inactive”.
With O=C(Nc1nccs1)c1cc2sccc2n1Cc1ccc(F)cc1 the activity change, negative = growth inhibition was inconclusive: -30.5% [inhibitor].
With COc1cccc(C(=O)Nc2cccc(-c3cn4c(C)csc4n3)c2)c1OC the Potency was active: 18.4 µM.
With Cn1c(=O)c(C(=O)NCCO)c(O)c2ccccc21 the Potency was inconclusive [inhibitor, single point].
In the case of Cn1cccc1Cc1nnc(SCC(=O)N2CCc3ccccc32)n1-c1ccc(F)cc1, the Potency is reported as inconclusive [inhibitor, single point].
With O=C(Cn1nc(C(F)(F)F)cc1C1CC1)NCc1ccccc1F the Potency was inconclusive [inhibitor, single point].
For CC1(c2cc(F)ccc2F)NC(=O)N(CC(=O)Nc2cccc(S(=O)(=O)N3CCCC3)c2)C1=O (centres undefined), the Potency was inconclusive [inhibitor, single point].
With CCC(=O)NC(c1cccs1)c1cc(Cl)c2cccnc2c1O (centres undefined) the Potency was active: 4.61 µM.
In the case of CC(C)(C)SCCNC(=O)c1ccc(Cl)c([N+](=O)[O-])c1, the Potency is reported as inconclusive [inhibitor, partial curve].
For COc1cc(SC)ccc1C(=O)NCC1CCCCC1, the Potency was inconclusive [inhibitor, single point].
With CN(C)CCNC(=O)/C=N/O the Potency was “inactive”.
With CNc1nc(-c2ccc3c(c2)OCO3)nc2ccccc12 the Potency was inconclusive [inhibitor, single point].
In the case of BrC(/C=C\c1ccccc1)=N/Nc1nc(N2CCOCC2)nc(N2CCOCC2)n1, the Potency is reported as active: 7.31 µM.
For COCCn1c(=S)[nH]c2cc(C(=O)N3CCN(c4ccccc4OC)CC3)ccc2c1=O, the Potency was inconclusive [inhibitor, partial curve].
With CCCc1nc2oc3c(Cl)ncnc3c2c2c1CCCC2 the Potency was inconclusive [inhibitor, single point].
In the case of Cc1cccc(Nc2nc(N)c([N+](=O)[O-])c(NCCO)n2)c1, the Potency is reported as inconclusive [inhibitor, single point].
For CCN(CC)c1ncn(Cc2c(Cl)cccc2Cl)c2ncnc1-2, the Potency was inconclusive [inhibitor, single point].
With CC(=O)NC1=NC(=O)C(C)S1 (centres undefined) the Potency was “inactive”.
With CC1=C(C)C(=O)OC(C(C)C2CCC3C4CC=C5CC(OC6OC(COC7OC(CO)C(O)C(O)C7O)C(O)C(O)C6O)CC(O)C5(C)C4CCC23C)C1 (centres undefined) the Potency was inconclusive [inhibitor, single point].
With CSCC[C@H](N)C(=O)N1CCC(C(=O)N[C@H](C)C(=O)Nc2ccc(C(C)C)cc2)CC1 the Potency was “inactive”.
In the case of Cc1ccc(C)c(S(=O)(=O)N2CCCC2CNC(=O)C(=O)NCCc2ccco2)c1 (centres undefined), the Potency is reported as inconclusive [inhibitor, single point].
With CC(C)(C)c1ccc(C(O)c2ncc(-c3ccccc3)[nH]2)cc1 (centres undefined) the Potency was inconclusive [inhibitor, single point].
In the case of COc1ccc(CCNC(=O)c2cc(-c3ccc(Cl)c(Cl)c3)oc2C)cc1, the Potency is reported as inconclusive [inhibitor, single point].
For CCOc1ccc(-c2nn(CC(=O)NC3CCCC3)c3c2cnc2ccc(F)cc23)cc1, the Potency was “inactive”.
With CN(CC(=O)Nc1cccc(F)c1)C(=O)CNS(=O)(=O)c1ccc(N(C)C)c([N+](=O)[O-])c1 the Potency was “inactive”.
In the case of Cc1ccccc1C(=O)Nc1cccc(NC(=O)c2ccc(-c3ccc(Br)cc3)o2)c1, the Potency is reported as active: 23.1 µM.
For O=C(Nc1ccc(-c2cn3cccnc3n2)cc1)c1cc(Br)ccc1Cl, the Potency was inconclusive [inhibitor, full curve, poor fit].
In the case of Cc1nnc(N2CCCC(C(=O)NCCc3ccc(Cl)cc3)C2)c2nn(-c3ccccc3)c(C)c12 (centres undefined), the Potency is reported as inconclusive [inhibitor, single point].
In the case of CCc1nc2ccc(C(=O)N3CCN(S(=O)(=O)CC)CC3)cn2c1N(CCC(C)C)CCN(C)C, the Potency is reported as “inactive”.
In the case of Cc1cc(C(=O)COc2ccccc2C(N)=O)c(C)n1C1CC1, the Potency is reported as inconclusive [inhibitor, single point].
With CC1(C(=O)Nc2cccc3cccnc23)CCN1Cc1ccccc1OC(F)F (centres undefined) the Potency was inconclusive [inhibitor, single point].
In the case of COC(=O)[C@]12CCCCC=C1N(Cc1cccc3ccccc13)C(=O)[C@H](CC(=O)NCCCN1CCCC1=O)C2, the Potency is reported as inconclusive [inhibitor, single point].
For CCSc1nc2c(c(=O)[nH]c(=O)n2C)n1CC(O)COc1ccccc1 (centres undefined), the Potency was inconclusive [inhibitor, single point].
In the case of COc1ccccc1CNc1nc(C)c(C(=O)N(C)C)s1, the Potency is reported as inconclusive [inhibitor, single point].
With CNC(=O)c1sc(-c2cccs2)nc1C the Potency was “inactive”.
In the case of Cc1cccc(C(=O)NNC(=O)CCC(=O)Nc2cccc(Cl)c2C)c1, the Potency is reported as inconclusive [inhibitor, partial curve, poor fit].
For COc1cccc(NC(=O)C2(C)CCN2C(=O)Cc2ccc(C(C)C)cc2)c1 (centres undefined), the Potency was active: 18.4 µM.
In the case of C=CCNc1nc(-c2ccccc2)c(C(=O)OCC)cc1C#N, the Potency is reported as inconclusive [inhibitor, single point].
In the case of COc1cc2c(cc1C1NC(=S)NC(C)=C1C(N)=O)CCCC2 (centres undefined), the Potency is reported as inconclusive [inhibitor, single point].
For Cc1cc(C(c2ccc(O)cc2)c2cc(C)c(O)cc2C)c(C)cc1O, the Potency was inconclusive [inhibitor, single point].
With Cc1csc(NC(=O)CSc2nnc(NC(=O)NC(C)(C)C)s2)n1 the Potency was inconclusive [inhibitor, single point].
With S=c1[nH]ncn1/N=C/c1cccs1 the Potency was “inactive”.
With Cc1ccc(CS(=O)(=O)Cc2ccc(C(=O)NCc3ccccn3)o2)cc1 the Potency was inconclusive [inhibitor, single point].
In the case of Cc1cc(C)c2nc(NC(=O)c3ccc4c(c3)OCO4)sc2c1, the Potency is reported as inconclusive [inhibitor, partial curve, poor fit].
For Cc1csc(NC(=O)CSc2nnc(NC(=O)COc3ccccc3)s2)n1, the Potency was “inactive”.
With COc1cc(C=O)ccc1OCCOCCOc1c(C)cc(Cl)cc1Cl the Potency was inconclusive [inhibitor, single point].
For Cn1c(CCCOc2ccc(Cl)cc2Cl)n[nH]c1=S, the Potency was inconclusive [inhibitor, single point].
In the case of O=C(Cn1nnc2ccccc21)NCc1ccccc1, the Potency is reported as inconclusive [inhibitor, single point].
With O=C(CN1CCN(c2ccccc2)CC1)Nc1ccccc1Sc1ccccc1 the Potency was inconclusive [inhibitor, single point].
